Measurements published in PubChem BioAssay AID720709 (National Center for Advancing Translational Sciences (NCATS), 2013).
Among all 360,000 compounds or so, about 520 (0.14%) were called active. This list was built around the results that the source calls inconclusive (neither active nor inactive); the mix of calls is not that of the screen. The call rests on the fitted dose curve; in most records, active means well fitted inhibition curve with a large enough effect; inconclusive means small, poorly fitted or top-dose-only effect; inactive means no such curve, though single readings can be large or run the other way. Potencies of inconclusive entries are left out as doubtful fits.

Molecular target: Rap guanine nucleotide exchange factor 3 (Homo sapiens) (UniProt O95398)
Sequence of UniProt O95398 (O95398 whole entry, looked up): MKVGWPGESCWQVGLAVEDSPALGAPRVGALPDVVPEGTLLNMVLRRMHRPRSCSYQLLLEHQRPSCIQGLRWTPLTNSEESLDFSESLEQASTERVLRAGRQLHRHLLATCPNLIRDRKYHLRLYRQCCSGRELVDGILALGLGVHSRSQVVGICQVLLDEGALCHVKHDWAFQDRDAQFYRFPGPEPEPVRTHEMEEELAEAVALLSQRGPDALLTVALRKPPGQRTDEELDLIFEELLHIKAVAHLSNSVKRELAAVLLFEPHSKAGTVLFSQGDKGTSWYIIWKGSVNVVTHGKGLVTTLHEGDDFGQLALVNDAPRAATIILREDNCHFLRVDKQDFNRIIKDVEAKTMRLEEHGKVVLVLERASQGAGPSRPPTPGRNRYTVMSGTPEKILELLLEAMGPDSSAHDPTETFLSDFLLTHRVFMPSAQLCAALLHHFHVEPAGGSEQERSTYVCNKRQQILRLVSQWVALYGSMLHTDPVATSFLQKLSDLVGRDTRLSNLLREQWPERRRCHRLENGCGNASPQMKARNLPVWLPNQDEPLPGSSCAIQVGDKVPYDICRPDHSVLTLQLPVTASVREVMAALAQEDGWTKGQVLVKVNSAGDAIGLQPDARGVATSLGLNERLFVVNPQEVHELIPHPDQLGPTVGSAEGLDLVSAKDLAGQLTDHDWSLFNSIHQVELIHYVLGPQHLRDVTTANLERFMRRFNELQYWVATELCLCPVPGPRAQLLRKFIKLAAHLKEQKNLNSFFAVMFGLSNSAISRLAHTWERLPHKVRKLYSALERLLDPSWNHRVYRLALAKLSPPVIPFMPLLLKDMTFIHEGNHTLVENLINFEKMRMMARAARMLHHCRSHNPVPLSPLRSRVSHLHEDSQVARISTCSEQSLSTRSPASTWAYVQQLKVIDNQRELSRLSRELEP
Experiment: qHTS for Antagonist of cAMP-regulated guanine nucleotide exchange factor 3 (EPAC1): primary screen; further: nearly all actives have a fitted effect of over 50% in size;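 on activity change, negative = inhibition: plate controls were vehicle for no effect and positive control for full effect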
Conditions: EPAC1 GEF assay, Rap1b-BODIPY-GDP exchange fluorescence; activity change, negative = inhibition: at 115 µM (top of the series)
Potency means the concentration at half of the fitted maximal effect; tags describe the fitted curve by direction and shape.

Structure (SMILES)	activity change, negative = inhibition	Potency
Cc1cc(C)nc(NN2C(=O)/C(=C/c3ccccc3)SC2=S)n1	inactive: 2.01%	
NNC(=O)c1cc2cc(OC(F)(F)F)ccc2[nH]1	inactive: -3.91%	
O=C(CCCCCn1c(=S)[nH]c2ccc(N3CCOCC3)cc2c1=O)NCc1cccc(Cl)c1	inactive: 6.67%	
COc1ccc(N2CCN(C(=O)COC(=O)COc3cc(C)cc(C)c3)CC2)cc1		inconclusive [inhibitor, full curve, poor fit]
CN(C)S(=O)(=O)c1cc(NC(=O)COC(=O)CC2Sc3ccccc3NC2=O)ccc1Cl (stereo unspecified)		inconclusive [inhibitor, partial curve, poor fit]
N#C/C(=C\c1ccc[nH]1)Sc1nc2ccccc2s1		inconclusive [inhibitor, single point]
CC(C)CCN1C(=O)c2cccc3c(N)ccc(c23)C1=O	inactive: 24.6%	
COc1cccc(CC2(CO)CCCN(Cc3cc(F)ccc3-n3cccn3)C2)c1 (stereo unspecified)	inactive: 1.23%	
CCC(C)(C(=O)NC1CCCCC1)N(C(=O)Cc1cccs1)c1ccccc1 (stereo unspecified)		inconclusive [inhibitor, partial curve]
CSc1ccc(Cn2c(C)c(C(=O)NCc3cccc(Cl)c3)sc2=O)cc1		inconclusive [inhibitor, partial curve, poor fit]
Cc1[nH]n(-c2ncc(-c3ccccc3)s2)c(=O)c1C(c1ccc(Cl)cc1)C(C#N)C#N (stereo unspecified)		active: 50.1 µM
CC(C)OC(=O)c1cn(-c2ccccc2)nc1-c1ccco1		inconclusive [inhibitor, partial curve]
N#CCCOC1(C#CCN2CCCC2)CCCCC1		inconclusive [inhibitor, single point]
C[C@H](O)[C@@H]1C(=O)N2CCc3c([nH]c4ccccc34)[C@@H]2C[C@@H]1N(C)S(=O)(=O)c1ccccc1	inactive: -28.2%	
CCCC(=O)Nc1ccc(Cl)c(NC(=O)c2cccc(OC)c2)c1		inconclusive [inhibitor, full curve, poor fit]
Cc1ccc(S(=O)(=O)N2CCCCC2)cc1NC(=O)Cn1cnnn1		inconclusive [inhibitor, full curve, poor fit]
COc1ccc(CNC(=O)C(c2ccco2)N(C(=O)c2snc(C(N)=O)c2N)c2cccc(OC)c2)cc1 (stereo unspecified)		inconclusive [inhibitor, full curve, poor fit]
COc1ccc(C/C(C)=N/NC(=O)c2cccnc2)cc1		inconclusive [inhibitor, single point]
COc1ccc(N(C)S(=O)(=O)c2cccc(C(=O)Nc3ccc4c(c3)OCCO4)c2)cc1		inconclusive [inhibitor, full curve, poor fit]
O=C(CCN1C(=O)S/C(=C\c2ccccc2)C1=O)Nc1ccc(S(=O)(=O)Nc2nccs2)cc1		inconclusive [inhibitor, partial curve]
C=CCNC(=S)N/N=C/c1ccc(C)cc1C	inactive: -3.58%	
CCN(c1ccccc1)c1cc2ccccc2c(=O)[nH]1		inconclusive [inhibitor, single point]
c1ccn2cc(-c3ccc4c(c3)OCCO4)nc2c1		inconclusive [inhibitor, partial curve]

Structure (SMILES)	activity change, negative = inhibition	Potency
C=CCC[C@@H](Cc1ccc(F)cc1)C(=O)OC[C@@H](NC(=O)[C@@H](CC=C)CC(=O)N[C@H](CO)Cc1ccccc1)C(C)(C)C	inactive: -17.7%	
N#CCCN(CCC#N)S(=O)(=O)c1ccc(C(=O)Nc2nnc(C3=COCCO3)o2)cc1		inconclusive [inhibitor, full curve, poor fit]
CNCCCOc1ccc(Cl)cc1C(C)(C)C	inactive: -11.5%	
CNC(=O)c1ccsc1NC(=O)c1ccc2c(c1)CCCC2		inconclusive [inhibitor, single point]
O=C(CSc1nnc(-c2cccnc2)n1CCN1CCCCC1)Nc1cccc(Cl)c1		inconclusive [inhibitor, full curve, poor fit]
O=C(O)CCn1ncc2ccccc2c1=O		inconclusive [inhibitor, partial curve]
CSc1ccc(Cn2c(C)c(C(=O)NCCC#N)sc2=O)cc1		inconclusive [inhibitor, partial curve, poor fit]
CSc1ccc(CN(C)CC(=O)Nc2ccc(C)cc2Br)cc1	inactive: -18.2%	
CC1(C)NC(=O)N(CC(=O)OCC(=O)Nc2c(Br)cc([N+](=O)[O-])cc2Br)C1=O	inactive: 19.8%	
Cc1c(Cl)cccc1NC(=O)Nc1cccnc1		inconclusive [inhibitor, single point]
O=C(/C=C/c1ccc(Br)o1)NCc1ccccc1		inconclusive [inhibitor, single point]
Clc1ccccc1OCCCCN1CCNCC1	inactive: 0.881%	
CCc1nc2ccc(C(=O)NCCCN3CCCC3=O)cn2c1N(CCC(C)C)CCN(C)C	inactive: 5.46%	
Cc1ccc(CSc2ncnc3c2cnn3-c2ccccc2)cc1	inactive: 7.26%	
CCCN(CC(=O)c1cc(C)n(C)c1C)S(=O)(=O)c1cccc(C(F)(F)F)c1		inconclusive [inhibitor, partial curve]
CC1(C)Cc2c(C#N)c(SCC(=O)c3ccccc3)nc(N3CCOCC3)c2CO1		inconclusive [inhibitor, partial curve]
COc1ccc(SCCc2ccncc2)cc1		inconclusive [inhibitor, partial curve, poor fit]
O=C(Nc1cc(Cl)ccc1Cl)c1ccco1	inactive: 2.45%	
COc1cccc(NC2=C(NCCO)C(=O)c3ccccc3C2=O)c1	inactive: -7.38%	
O=C1NC(=S)S/C1=C\c1cc(Cl)ccc1Cl		inconclusive [inhibitor, partial curve, poor fit]
OCCN1CCN(C(=S)c2ccc(Cl)c(Cl)c2)CC1	inactive: 2.06%	
CC1CCCN(C(=O)CNC(=O)c2ccco2)C1 (stereo unspecified)		inconclusive [inhibitor, full curve]
O=C(CSc1nc(O)cc(=O)n1-c1ccccc1)Nc1nc2ccccc2s1		inconclusive [inhibitor, full curve, poor fit]
